# Results as given in the supplement of paper PMC8728848.
# The other results are listed elsewhere or left out.
# How the values were obtained:
# Test in all cases: glycan array binding signal (z-score within array); higher = stronger binding
# Settings in all cases: glycan notation: IUPAC condensed, linker removed
# [1] = target: Neu5Ac(a2-3)Gal(b1-3)GlcNAc(b1-2)Man
# Summary of the method: (§1)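 The binding signal is a Z-score computed within each array and averaged over linkers. Arrays of the same protein sequence at different concentrations or buffers were also averaged together. Data originate from 3228 arrays in the Consortium for Functional Glycomics database, kept only where the protein sequence was available.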
# [2] = target: Neu5Ac(a2-3)Gal(b1-3)GlcNAc(b1-2)Man(a1-3)[GlcNAc(b1-4)][Neu5Ac(a2-3)Gal(b1-3)GlcNAc(b1-2)Man(a1-6)]Man(b1-4)GlcNAc(b1-4)GlcNAc
# Summary of the method: as §1
# [3] = target: Neu5Ac(a2-3)Gal(b1-3)GlcNAc(b1-2)Man(a1-3)[Neu5Ac(a2-3)Gal(b1-3)GlcNAc(b1-2)Man(a1-6)]Man(b1-4)GlcNAc(b1-4)GlcNAc
# Summary of the method: as §1
# [4] = target: Neu5Ac(a2-3)Gal(b1-3)GlcNAc(b1-2)[Neu5Ac(a2-3)Gal(b1-3)GlcNAc(b1-4)]Man(a1-6)[Neu5Ac(a2-3)Gal(b1-3)GlcNAc(b1-2)Man(a1-3)]Man(b1-4)GlcNAc(b1-4)GlcNAc
# Summary of the method: as §1
# [5] = target: Neu5Ac(a2-3)Gal(b1-3)GlcNAc(b1-3)Gal(b1-3)GlcNAc
# Summary of the method: as §1
# [6] = target: Neu5Ac(a2-3)Gal(b1-3)GlcNAc(b1-3)Gal(b1-4)GlcNAc
# Summary of the method: as §1
# [7] = target: Neu5Ac(a2-3)Gal(b1-3)GlcNAc(b1-3)GalNAc
# Summary of the method: as §1
# [8] = target: Neu5Ac(a2-3)Gal(b1-3)GlcNAc(b1-6)GalNAc
# Summary of the method: as §1
# [9] = target: Neu5Ac(a2-3)Gal(b1-3)GlcNAc6S
# Summary of the method: as §1
# [10] = target: Neu5Ac(a2-3)Gal(b1-3)[Fuc(a1-4)]GlcNAc
# Summary of the method: as §1
# [11] = target: Neu5Ac(a2-3)Gal(b1-3)[Fuc(a1-4)]GlcNAc(b1-3)Gal(b1-3)[Fuc(a1-4)]GlcNAc
# Summary of the method: as §1
# [12] = target: Neu5Ac(a2-3)Gal(b1-3)[Fuc(a1-4)]GlcNAc(b1-3)Gal(b1-4)[Fuc(a1-3)]GlcNAc
# Summary of the method: as §1
# [13] = target: Neu5Ac(a2-3)Gal(b1-3)[GlcNAc(b1-6)]GalNAc
# Summary of the method: as §1
# [14] = target: Neu5Ac(a2-3)Gal(b1-3)[Neu5Ac(a2-6)]GalNAc
# Summary of the method: as §1
# [15] = target: Neu5Ac(a2-3)Gal(b1-3)[Neu5Ac(a2-6)]GlcNAc(b1-3)[Fuc(a1-3)[Gal(b1-4)]GlcNAc(b1-6)]Gal(b1-4)Glc
# Summary of the method: as §1
# [16] = target: Neu5Ac(a2-3)Gal(b1-3)]Neu5Ac(a2-3)Gal(b1-4)]GlcNAc
# Summary of the method: as §1
# Neu5Ac(a2-3)Gal(b1-4)Glc = target: Neu5Ac(a2-3)Gal(b1-4)Glc
# Summary of the method: as §1
# [17] = target: Neu5Ac(a2-3)Gal(b1-4)GlcNAc
# Summary of the method: as §1
# [18] = target: Neu5Ac(a2-3)Gal(b1-4)GlcNAc(b1-2)Man
# Summary of the method: as §1
# [19] = target: Neu5Ac(a2-3)Gal(b1-4)GlcNAc(b1-2)Man(a1-3)[GlcNAc(b1-4)][Neu5Ac(a2-3)Gal(b1-4)GlcNAc(b1-2)Man(a1-6)]Man(b1-4)GlcNAc(b1-4)GlcNAc
# Summary of the method: as §1
# [20] = target: Neu5Ac(a2-3)Gal(b1-4)GlcNAc(b1-2)Man(a1-3)[Neu5Ac(a2-3)Gal(b1-4)GlcNAc(b1-2)Man(a1-6)]Man(b1-4)GlcNAc(b1-4)GlcNAc
# Summary of the method: as §1
# [21] = target: Neu5Ac(a2-3)Gal(b1-4)GlcNAc(b1-2)Man(a1-3)[Neu5Ac(a2-3)Gal(b1-4)GlcNAc(b1-2)Man(a1-6)]Man(b1-4)GlcNAc(b1-4)[Fuc(a1-6)]GlcNAc
# Summary of the method: as §1
# [22] = target: Neu5Ac(a2-3)Gal(b1-4)GlcNAc(b1-2)Man(a1-3)[Neu5Ac(a2-6)Gal(b1-4)GlcNAc(b1-2)Man(a1-6)]Man(b1-4)GlcNAc(b1-4)GlcNAc
# Summary of the method: as §1
# [23] = target: Neu5Ac(a2-3)Gal(b1-4)GlcNAc(b1-2)[Neu5Ac(a2-3)Gal(b1-4)GlcNAc(b1-4)]Man(a1-3)[GlcNAc(b1-4)][Neu5Ac(a2-3)Gal(b1-4)GlcNAc(b1-2)[Neu5Ac(a2-3)Gal(b1-4)GlcNAc(b1-6)]Man(a1-6)]Man(b1-4)GlcNAc(b1-4)GlcNAc
# Summary of the method: as §1
# [24] = target: Neu5Ac(a2-3)Gal(b1-4)GlcNAc(b1-2)[Neu5Ac(a2-3)Gal(b1-4)GlcNAc(b1-4)]Man(a1-3)[GlcNAc(b1-4)][Neu5Ac(a2-3)Gal(b1-4)GlcNAc(b1-4)Man(a1-6)]Man(b1-4)GlcNAc(b1-4)GlcNAc
# Summary of the method: as §1
# [25] = target: Neu5Ac(a2-3)Gal(b1-4)GlcNAc(b1-2)[Neu5Ac(a2-3)Gal(b1-4)GlcNAc(b1-6)]Man(a1-6)[Neu5Ac(a2-3)Gal(b1-4)GlcNAc(b1-2)Man(a1-3)][GlcNAc(b1-4)]Man(b1-4)GlcNAc(b1-4)GlcNAc
# Summary of the method: as §1
# [26] = target: Neu5Ac(a2-3)Gal(b1-4)GlcNAc(b1-3)Gal
# Summary of the method: as §1
# [27] = target: Neu5Ac(a2-3)Gal(b1-4)GlcNAc(b1-3)Gal(b1-3)GlcNAc
# Summary of the method: as §1
# [28] = target: Neu5Ac(a2-3)Gal(b1-4)GlcNAc(b1-3)Gal(b1-4)GlcNAc
# Summary of the method: as §1
# [29] = target: Neu5Ac(a2-3)Gal(b1-4)GlcNAc(b1-3)Gal(b1-4)GlcNAc(b1-2)Man(a1-3)[Neu5Ac(a2-3)Gal(b1-4)GlcNAc(b1-3)Gal(b1-4)GlcNAc(b1-2)Man(a1-6)]Man(b1-4)GlcNAc(b1-4)GlcNAc
# Summary of the method: as §1
# [30] = target: Neu5Ac(a2-3)Gal(b1-4)GlcNAc(b1-3)Gal(b1-4)GlcNAc(b1-3)Gal(b1-4)GlcNAc
# Summary of the method: as §1
# [31] = target: Neu5Ac(a2-3)Gal(b1-4)GlcNAc(b1-3)Gal(b1-4)GlcNAc(b1-3)Gal(b1-4)GlcNAc(b1-2)Man(a1-3)[Neu5Ac(a2-3)Gal(b1-4)GlcNAc(b1-3)Gal(b1-4)GlcNAc(b1-3)Gal(b1-4)GlcNAc(b1-2)Man(a1-6)]GalNAc
# Summary of the method: as §1
# [32] = target: Neu5Ac(a2-3)Gal(b1-4)GlcNAc(b1-3)Gal(b1-4)GlcNAc(b1-3)GalNAc
# Summary of the method: as §1
# [33] = target: Neu5Ac(a2-3)Gal(b1-4)GlcNAc(b1-3)Gal(b1-4)GlcNAc(b1-3)[Neu5Ac(a2-3)Gal(b1-4)GlcNAc(b1-3)Gal(b1-4)GlcNAc(b1-6)]GalNAc
# Summary of the method: as §1
# [34] = target: Neu5Ac(a2-3)Gal(b1-4)GlcNAc(b1-3)Gal(b1-4)GlcNAc(b1-6)[Gal(b1-3)]GalNAc
# Summary of the method: as §1
# [35] = target: Neu5Ac(a2-3)Gal(b1-4)GlcNAc(b1-3)Gal(b1-4)[Fuc(a1-3)]GlcNAc
# Summary of the method: as §1
# [36] = target: Neu5Ac(a2-3)Gal(b1-4)GlcNAc(b1-3)GalNAc
# Summary of the method: as §1
# [37] = target: Neu5Ac(a2-3)Gal(b1-4)GlcNAc(b1-3)[Neu5Ac(a2-3)Gal(b1-4)GlcNAc(b1-6)]GalNAc
# Summary of the method: as §1
binder,measurement,setting,value
Epa13 (Candida glabrata) (protein) MGSSHHHHHHSSGLVPRGSHMASDSSENGYAHGCSPSIRAKLKPGLSMEIYSYALRPTDDHCWDSAYLDPMFPRTGYLTHKLLGKAEGIIGPLNFLAKNPACIPAVSTLPLAFHFPKPFTITNFTMLLYGYLSPKKTGKYTFKLLADDLLLMNFGADNAFDCCSHDATKDNIGEYVAYSVWPGVNKNVTVYLESGIYYPLRLFFNNRDAIAQLDFAYYFNDSPIRQTDFSGMFFSIPDSVKCPANI,glycan array binding signal (z-score),[1],-0.315
same,glycan array binding signal (z-score),[2],0.094
same,glycan array binding signal (z-score),[3],-0.285
same,glycan array binding signal (z-score),[4],-0.373
same,glycan array binding signal (z-score),[5],-0.449
same,glycan array binding signal (z-score),[6],-0.174
same,glycan array binding signal (z-score),[7],-0.168
same,glycan array binding signal (z-score),[8],-0.1
same,glycan array binding signal (z-score),[9],0.379
same,glycan array binding signal (z-score),[10],-0.244
same,glycan array binding signal (z-score),[11],-0.221
same,glycan array binding signal (z-score),[12],-0.039
same,glycan array binding signal (z-score),[13],-0.101
same,glycan array binding signal (z-score),[14],-0.48
same,glycan array binding signal (z-score),[15],-0.357
same,glycan array binding signal (z-score),[16],-0.306
same,glycan array binding signal (z-score),Neu5Ac(a2-3)Gal(b1-4)Glc,-0.165
same,glycan array binding signal (z-score),[17],-0.202
same,glycan array binding signal (z-score),[18],0.565
same,glycan array binding signal (z-score),[19],-0.336
same,glycan array binding signal (z-score),[20],-0.371
same,glycan array binding signal (z-score),[21],1.08
same,glycan array binding signal (z-score),[22],-0.354
same,glycan array binding signal (z-score),[23],-0.406
same,glycan array binding signal (z-score),[24],-0.123
same,glycan array binding signal (z-score),[25],-0.431
same,glycan array binding signal (z-score),[26],-0.31
same,glycan array binding signal (z-score),[27],-0.222
same,glycan array binding signal (z-score),[28],-0.095
same,glycan array binding signal (z-score),[29],0.632
same,glycan array binding signal (z-score),[30],-0.21
same,glycan array binding signal (z-score),[31],0.821
same,glycan array binding signal (z-score),[32],0.208
same,glycan array binding signal (z-score),[33],-0.167
same,glycan array binding signal (z-score),[34],0.018
same,glycan array binding signal (z-score),[35],-0.169
same,glycan array binding signal (z-score),[36],-0.077
same,glycan array binding signal (z-score),[37],-0.089
